Molecules are shown by their SMILES. Out of some 310,000 compounds screened, about 2,200 (0.71%) showed an effect of 50% or more. Effects have a minus sign here. The list shows a part of the results.

The text below walks through data of paper PMC4336329 (PLoS ONE, 2015).

Chain of human ether-à-go-go-related gene (hERG) potassium channel (Q12809 whole entry, looked up): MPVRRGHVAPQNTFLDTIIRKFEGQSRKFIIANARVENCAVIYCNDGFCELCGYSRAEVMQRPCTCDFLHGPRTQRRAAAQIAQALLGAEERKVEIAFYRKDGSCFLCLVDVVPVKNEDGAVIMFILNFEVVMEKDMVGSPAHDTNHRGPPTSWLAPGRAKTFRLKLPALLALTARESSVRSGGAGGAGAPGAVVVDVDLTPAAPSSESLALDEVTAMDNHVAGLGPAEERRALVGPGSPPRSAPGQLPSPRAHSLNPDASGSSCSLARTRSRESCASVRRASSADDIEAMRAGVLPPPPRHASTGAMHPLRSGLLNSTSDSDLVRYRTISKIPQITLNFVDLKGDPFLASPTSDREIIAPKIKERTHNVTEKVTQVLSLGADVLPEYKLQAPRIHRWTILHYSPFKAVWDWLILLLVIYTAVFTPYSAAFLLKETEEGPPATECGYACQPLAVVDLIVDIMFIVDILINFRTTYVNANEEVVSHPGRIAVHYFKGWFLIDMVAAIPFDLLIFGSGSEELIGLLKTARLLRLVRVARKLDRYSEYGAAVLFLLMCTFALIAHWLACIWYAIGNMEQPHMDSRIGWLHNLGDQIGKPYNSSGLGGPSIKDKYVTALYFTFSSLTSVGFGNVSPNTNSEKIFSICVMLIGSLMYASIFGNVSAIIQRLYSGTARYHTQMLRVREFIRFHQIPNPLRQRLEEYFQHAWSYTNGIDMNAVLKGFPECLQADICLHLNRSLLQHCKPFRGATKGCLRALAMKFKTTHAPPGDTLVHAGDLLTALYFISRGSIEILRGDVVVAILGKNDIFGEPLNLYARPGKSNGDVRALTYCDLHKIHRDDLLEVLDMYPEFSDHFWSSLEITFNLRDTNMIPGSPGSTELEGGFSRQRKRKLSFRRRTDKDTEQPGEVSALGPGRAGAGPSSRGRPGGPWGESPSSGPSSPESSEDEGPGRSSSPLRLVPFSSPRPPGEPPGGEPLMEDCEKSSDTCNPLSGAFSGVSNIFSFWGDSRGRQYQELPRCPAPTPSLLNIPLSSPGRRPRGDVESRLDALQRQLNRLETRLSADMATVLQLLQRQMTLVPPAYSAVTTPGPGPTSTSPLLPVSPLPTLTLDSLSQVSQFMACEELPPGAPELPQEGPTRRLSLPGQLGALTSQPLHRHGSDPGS

This test has as its target human ether-à-go-go-related gene (hERG) potassium channel (human, UniProt Q12809). Description: primary screen, population patch clamp on CHO cells stably expressing hERG.
Consider `CC(C)c1cc(N=NC(N)=O)cc(C(C)C)c1O`, for which the “hERG current change (%, negative = inhibition) at 1uM” value is recorded as 6.77%.
To `O=C(c1ccccc1)n1ccn(-c2ccccc2)c1=S` belongs -10.3%; to `CC1CCc2cc(F)ccc2N1C(=O)CSc1nnc(-c2cccs2)n1C` (centres unmarked), 0.707%; to `Cc1cc(C)nc(NS(=O)(=O)c2ccc(N3C(=O)c4ccccc4C3=O)cc2)n1`, -1.19%.
To `N/C(=N\OC(=O)C1CCCCC1)c1ccccn1` belongs 14.3%.
Next, `NC(=O)COC(=O)CC(c1ccccc1)c1ccccc1`: 8.9%; `Cc1c([N+](=O)[O-])nnn1-c1cc(Cl)cc(Cl)c1`: 8.12%.
Take `Cn1ccc(C(=O)Nc2sc3c(c2C#N)CCC3)n1`: the “hERG current change (%, negative = inhibition) at 1uM” value was 19%.
Next, `Cc1ccc(S(=O)(=O)N(C)CC(=O)OCC(=O)NC(c2ccccc2)c2ccccc2)cc1`: 11.8%; `C/C(=N\N1C(=O)c2ccccc2NC1c1ccccc1)c1ccccc1O` (centres unmarked): 1.5%; `CC(C)c1ccc(/C=C(/C#N)c2nnc(NC(=O)c3ccccc3)s2)cc1`: 10.8%.
Next, `NS(=O)(=O)c1ccc(CCNC(=O)COC(=O)Cc2ccc([N+](=O)[O-])cc2)cc1`: -8.53%.
To `CCCN(CC#CCOc1ccc(OC)cc1)CCC.O=C(O)C(=O)O` belongs 1.21%.
Consider `Cn1ccnc1C(=O)c1ccc(NN)c([N+](=O)[O-])c1`, for which the “hERG current change (%, negative = inhibition) at 1uM” value is listed as 7.44%.
To `O=C(CC1CCCC1)Nc1nnc(C2CC2)s1` belongs 11.5%; to `COC(=O)[C@H](Cc1ccccc1)NC(=O)N1CCC(C)CC1`, 8.01%; to `COC(=O)c1sccc1NC(=O)c1ccc(C)s1`, 12.8%.
Next, `CC(C)[C@H](NC(N)=O)C(=O)Nc1cccc([N+](=O)[O-])c1`: 15.2%.
To `O=C(O)c1cccc(NS(=O)(=O)c2ccc(C3CCCCC3)cc2)c1` belongs 11.7%.
In the case of `O=C(CS(=O)(=O)c1ccccc1)Nc1ccc(S(=O)(=O)Nc2ccccn2)cc1`, the “hERG current change (%, negative = inhibition) at 1uM” value is on record as 1.96%.
As to `O=C1NC[C@@H](Cc2ccc(O)cc2)N(CCc2cccc(F)c2)C1=O`, the “hERG current change (%, negative = inhibition) at 1uM” value worked out at 15.3%.
To `CC1CCN(c2cc(N(C)CCO)c([N+](=O)[O-])c3nonc23)CC1` belongs 10.2%; to `COc1cccc(NC(=O)Cn2c(=O)oc3ccccc32)c1`, 10.9%; to `C=CCOC(=O)C1=C(C)NC(SCC(=O)OCC)=C(C#N)C1c1ccc(C)cc1` (centres unmarked), 16.7%.
To `COC(=O)c1c(NC(=O)Cc2ccccc2)sc2c1CC(C)(C)NC2(C)C` belongs 5.93%.
Next, `OCC1(CCc2ccccc2)CCN(Cc2ccccc2Cl)CC1`: -54.6%; `Cc1ccc(NC(=O)CN(C)C(=O)COC(=O)CNS(=O)(=O)c2ccc(F)c(F)c2F)cc1`: 12.5%; `Cc1cc(C)cc(Oc2coc3cc(O)ccc3c2=O)c1`: 7.9%.
Consider `C/C(CC(=O)Nc1ccc(OCc2ccccc2)cc1)=N\NC(=O)C(=O)Nc1cccc(C)c1`, for which the “hERG current change (%, negative = inhibition) at 1uM” value came out at 5.47%.
Take `O=C1CCc2cc(S(=O)(=O)NCCC(=O)N3CCN(c4cccc(Cl)c4)CC3)ccc2N1`: the “hERG current change (%, negative = inhibition) at 1uM” value is on record as -17.5%.
For the compound `C=CCn1c(SCc2ccc(Cl)c(Cl)c2)nnc1C(CO)NC(=O)c1ccc(OC)cc1` (centres unmarked), the “hERG current change (%, negative = inhibition) at 1uM” value is on record as 4.01%.
As for `Cc1cccc(N2CCN(C(=O)C3(S(=O)(=O)c4ccc(Cl)cc4)CC3)CC2)c1C`, the “hERG current change (%, negative = inhibition) at 1uM” value is given as -1.19%.
Next, `COc1ccc(N2CCN(C(=S)NCCc3ccccc3)CC2)cc1`: 6.06%.
As to `Cc1ccc2[nH]c3c(=S)nc[nH]c3c2c1`, the “hERG current change (%, negative = inhibition) at 1uM” value came to 14.5%.
Next, `S=C(NCCN1CCOCC1)Nc1ccc(Cl)c(Cl)c1`: 6.71%; `COc1ccc(N(C(=O)c2snc(C(N)=O)c2N)C(C(=O)NC2CCCC2)c2cccs2)c(OC)c1` (centres unmarked): 4.77%; `O=C(CN1C(=O)/C(=C/c2ccco2)SC1=S)NC1CCS(=O)(=O)C1` (centres unmarked): 13.9%.
To `COCCNC(=O)c1cccc(Nc2nc(-c3ccccc3)c3cc(Cl)ccc3n2)c1` belongs 13.9%; to `CCOC(=O)c1cn(CC)c2ccc(S(=O)(=O)N3CC(C)CC(C)C3)cc2c1=O` (centres unmarked), -1.29%; to `Cc1cc(Cl)ccc1OCCCC(=O)Nc1cccnc1`, 6.84%.
As to `Cc1ccc(OCCn2cccc2/C=C2/C(=O)NC(=O)N(Cc3ccco3)C2=O)cc1`, the “hERG current change (%, negative = inhibition) at 1uM” value is 10.8%.
For `CCc1nnc(NC(=O)CCc2ccc(C)o2)s1`, the “hERG current change (%, negative = inhibition) at 1uM” value is 5.48%.
To `CC(=O)Nc1ccc2nc(-c3cccnc3)[nH]c2c1` belongs 16.8%.
`O=C(CNc1ccccc1)NN=C1CCCC1`: the “hERG current change (%, negative = inhibition) at 1uM” value stood at 13.4%.
To `O=S(=O)(Nc1ccc(-c2ccc3nncn3n2)cc1)c1ccccc1Cl` belongs 7.16%; to `Cc1ccc(-c2ocnc2C(=O)Nc2nc(C)cs2)cc1`, 12.3%.
Next, `c1ccc(CCn2c(C3CC3)nc3ccccc32)cc1`: -11.4%; `O=C(NCC1CCCO1)NC12CC3CC(CC(C3)C1)C2` (centres unmarked): 12.6%.
Regarding `COc1ccc(C(=O)Nc2ncc(C)s2)cc1S(=O)(=O)N1CCOCC1`, the “hERG current change (%, negative = inhibition) at 1uM” value is -6.86%.
To `COc1ccc(N2CC(C(=O)Nc3ccccc3C(=O)NCc3ccco3)CC2=O)cc1` (centres unmarked) belongs -17.8%.
Next, `CCCC(=O)Nc1c2c(nn1-c1cccc(Cl)c1)CS(=O)(=O)C2`: -1.85%.
Next, `CC(C)(CNC(=O)CNC(=O)C1CCCCC1)N1CCOCC1`: 1.39%.
Take `CN(Cc1ccccc1)S(=O)(=O)c1ccc(Cl)c(C(=O)NCc2cccnc2)c1`: the “hERG current change (%, negative = inhibition) at 1uM” value worked out at 6%.
Next, `COc1ccccc1-n1cnnc1SC(C)C(=O)NCC1CCCO1` (centres unmarked): 6.96%.
Regarding `Cc1ccc(-c2nc(-c3ccccn3)no2)cc1Cl`, the “hERG current change (%, negative = inhibition) at 1uM” value came out at 1.49%.
For the compound `O=C(CNC(=O)c1cccc(OC(F)F)c1)Nc1ccc(Cl)cc1`, the “hERG current change (%, negative = inhibition) at 1uM” value came to 8.48%.
`O=C1NCN(c2ccccc2)C12CCN(c1nnnn1-c1ccccc1)CC2`: the “hERG current change (%, negative = inhibition) at 1uM” value amounted to 0.0267%.
Next, `COc1ccc(-n2c(SCC(=O)N3CCN(c4ccccc4)CC3)nc3c(c2=O)SCC3)cc1`: -6.97%; `COc1ccc(C(=O)NCc2ccccc2CN2CCCC2)cc1S(=O)(=O)Nc1ccc(C)cc1`: -31.9%.
Next, `O=C(c1ccccc1)N1CC(COc2ccccc2)OC(c2cccnc2)O1` (centres unmarked): 3.75%.
Next, `Cc1ccc(C(=O)Nc2cccc(S(=O)(=O)N3CCCC3)c2)o1`: 12.1%; `Cn1c(=O)[nH]c(=O)c2c1nc(SCC(N)=O)n2Cc1cccc(Br)c1`: 4.47%.
Consider `CN(C)CCCN(C(=O)c1ccc2c(c1)OCCO2)c1nc2ccc(Cl)cc2s1.Cl`, for which the “hERG current change (%, negative = inhibition) at 1uM” value is listed as -3.81%.
To `CS(=O)c1ccccc1O` (centres unmarked) belongs 8%.
Consider `O=C(O)CC1C(=O)NCCN1Cc1cccs1` (centres unmarked), for which the “hERG current change (%, negative = inhibition) at 1uM” value worked out at 0.0703%.
Next, `O=C(CSC1=NNC(c2ccccn2)S1)Nc1ccc(C(F)(F)F)cc1` (centres unmarked): 13.4%.
Consider `O=C(N[C@@H](Cc1ccccc1)C(=O)N1CCN(S(=O)(=O)c2cccc(F)c2)CC1)c1ccco1`, for which the “hERG current change (%, negative = inhibition) at 1uM” value was found to be 6.1%.
To `CO/N=C(/CN1CCCCC1)c1ccc(Cl)cc1` belongs 20.3%; to `CCOc1nc2ccccc2nc1NS(=O)(=O)c1ccc(Cl)cc1`, -2.83%; to `Cc1ccc(C(=O)NCc2ccc(Cl)cc2)cc1S(=O)(=O)N1CCCCC1`, 4.63%.
To `COc1ccc(Cl)cc1NC(=O)CN(C)C(=O)c1cc2ccccc2cc1O` belongs 14.5%; to `CC(=O)Cn1c(CN2CCCC2)nc2ccccc2c1=O`, 14.6%; to `O=C(CC(NS(=O)(=O)c1ccc(Cl)cc1)c1ccco1)NC1CCCC1` (centres unmarked), 1.65%.
Next, `O=S(=O)(c1cc(O)ccc1O)c1cccc2c(S(=O)(=O)c3cc(O)ccc3O)cccc12`: 8.99%.
Regarding `O=C(CN1C(=O)COc2ccccc21)NCCCN1CCCC1`, the “hERG current change (%, negative = inhibition) at 1uM” value is given as 19.5%.
As for `CC1CC2=C(NC(=S)NC2c2ccccc2F)/C(=C/c2ccccc2F)C1` (centres unmarked), the “hERG current change (%, negative = inhibition) at 1uM” value is 20.5%.
Next, `Cc1ncsc1CCC(=O)N1CCCC(Nc2ccc(C(C)C)cc2)C1` (centres unmarked): 5.15%; `COC(=O)CCC(=O)OC1(C)C(=O)C2=CN(CCc3ccccn3)C(c3ccc(OC)cc3)=CC2=C(Br)C1=O` (centres unmarked): -3.32%.
To `Cc1cc(=O)[nH]c(Nc2ccc(N(C)C)cc2)n1` belongs 17.7%; to `Cc1ccc(NCc2nc3ccccc3n2C)c(C)c1`, 10.2%; to `COc1cc(NC(=O)COC(=O)c2ccccc2SCC(=O)N2CCCC2)cc(OC)c1`, -14.3%.
Regarding `CN1CCN(c2ccc(CNC(=O)c3cc4ccccc4o3)cc2)CC1`, the “hERG current change (%, negative = inhibition) at 1uM” value stood at 3.03%.
To `O=C(O)CCCC(=O)NS(=O)(=O)c1ccc(Cl)cc1` belongs 11.7%; to `O=C(COc1ccccc1)N1CCN=C1SCc1ccccc1F`, 10.7%; to `Cc1ccc(Cn2nnc3c(=O)n(Cc4cccc(C)c4)cnc32)cc1`, 14.9%.
Next, `CCOC(=O)C(C)n1nc(C)c2sc3ccccc3c2c1=O` (centres unmarked): 5.71%; `COc1cccc(N2CC(C(=O)Nc3c(C(N)=O)oc4ccccc34)CC2=O)c1` (centres unmarked): 7.62%.
To `Cc1ccc(N(C)C(=O)Oc2cccc3cccnc23)cc1` belongs 14.8%; to `O=C1CSc2ccc(C(=O)Nc3cccc(S(=O)(=O)Nc4ccc(Br)cc4)c3)cc2N1`, 12%.
